Molecules are shown by their SMILES. Like-named read-outs stand apart in the source and are kept apart here.

This is an account of results in patent US9974800B2 (priority 2014, dated 2018).

For this series, the system named is Primary Human Macrophage Cells. On the procedure: Primary human macrophage cells were seeded at 1×10^5 cells/well in 100 μl 10% RPMI 1640 medium (Biocoat collagen I-coated 96 well plates). The next day, the medium was removed and 100 μl medium containing different concentration of drugs was added. 48 h post treatment, cytotoxicity was measured using Dojindo's Cell Counting Kit-8 (CCK-8), which utilizes Dojindo's highly water-soluble tetrazolium salt (WST). WST-8 produces a water-soluble formazan dye upon reduction in the presence of an electron mediator. The viability was calculated with regard to the untreated cell control, which was set to 100% viability.
The Table below provides a listing of the concentration of drugs and drug combinations tested and their effect on primary human macrophage cell toxicity.

On to `O=C(NCc1ccncc1)C12CC3CC(C1)CC(c1ccc(Cl)cc1)(C3)C2` [ABC294640, 3-(4-chlorophenyl)-adamantane-1-carboxylic acid (pyridin-4-ylmethyl)amide], for which the “Cytotoxic to Primary Human Macrophage Cells?” value (from here on “Cytotoxic”) (2.5 μM) is reported as “No”; the “Cytotoxic” value (5.0 μM) is “No”; the “Cytotoxic” value (10 μM) was “No”; the “Cytotoxic” value (20 μM) is “Yes”; the “Cytotoxic” value (40 μM) is given as “Yes”; the “Cytotoxic” value (60 μM) was “Yes”. For the same compound, the “Cytotoxic” value is reported as “Yes” (80 μM) and “Yes” (100 μM).
`O=c1[nH]c(=O)n(C2CC(O)C(CO)O2)cc1/C=C/Br` (stereo not drawn) [Brivudine, (E)-5-(2-bromovinyl)-2-deoxyuridine]: the “Cytotoxic” value runs as follows: (90 μM) “No”; (120 μM) “No”; (150 μM) “No”; (180 μM) “No”; (210 μM) “No”; (240 μM) “No”. In addition, the “Cytotoxic” value reads like this: (270 μM) “No”; (300 μM) “Yes”; (330 μM) “Yes”; (360 μM) “Yes”.
As to `CC[C@H]1OC(=O)[C@H](C)[C@@H](O[C@H]2C[C@@](C)(OC)[C@@H](O)[C@H](C)O2)[C@H](C)[C@@H](O[C@@H]2O[C@H](C)C[C@H](N(C)C)[C@H]2O)[C@](C)(OC)C[C@@H](C)C(=O)[C@H](C)[C@@H](O)[C@]1(C)O` [Clarithromycin], the “Cytotoxic” value is, setting by setting: (60 μM) “No”; (75 μM) “No”; (90 μM) “No”; (120 μM) “No”; (150 μM) “No”; (180 μM) “No”. In addition, the “Cytotoxic” value was “No” (210 μM); “Yes” (240 μM); “Yes” (270 μM); “Yes” (300 μM); “Yes” (330 μM); “Yes” (360 μM).
`CC(C)/N=c1\cc2n(-c3ccc(Cl)cc3)c3ccccc3nc-2cc1Nc1ccc(Cl)cc1` [Clofazamine, Clofazimine]: the “Cytotoxic” value (6 μM) was “No”, the “Cytotoxic” value (7 μM) is recorded as “No”, the “Cytotoxic” value (8 μM) was “No” and the “Cytotoxic” value (9 μM) was “No”.
On to `CO[C@H]1/C=C/O[C@@]2(C)Oc3c(C)c(O)c4c(c3C2=O)C2=NC3(CCN(CC(C)C)CC3)NC2=C(NC(=O)/C(C)=C\C=C\[C@H](C)[C@H](O)[C@@H](C)[C@@H](O)[C@@H](C)[C@H](OC(C)=O)[C@@H]1C)C4=O` [Rifabutin], for which the “Cytotoxic” value by setting is: (30 μM) “No”; (45 μM) “No”; (60 μM) “No”; (75 μM) “Yes”; (90 μM) “Yes”; (120 μM) “Yes”. The “Cytotoxic” value reads like this: (150 μM) “Yes”; (180 μM) “Yes”; (210 μM) “Yes”; (240 μM) “Yes”; (270 μM) “Yes”; (300 μM) “Yes”. The “Cytotoxic” value reads like this: (330 μM) “Yes”; (360 μM) “Yes”.
